Article PMC6451091
The other results are listed elsewhere or left out. For part of these data: At the low end of the ranking, values are background and their order means little. For part of these data: Measured with an extract: partners may take part in the binding.

Tests used:
Conditions in all cases: 20 mM HEPES pH 7.9, 100 mM NaCl, 1 mM DTT, 0.2 mg/mL BSA, 0.02% Triton X-100, 2% milk, 0.4 mg/mL salmon testes DNA; 1 h; temperature not stated; high values mean tight binding; double strand, one strand shown; sequences stand for … in GCCTAGCAC…GTGCTAGGTCTTGATTCGCTTGACGCTGCTG
PU.1 (IVT) = PU.1 (IVT) (UniProt P17947); experiment: protein-binding microarray (PBM)
[1] = molecular target: PU.1 (endogenous, THP-1 nuclear extract) (UniProt P17947); experiment: nuclear extract protein-binding microarray (nextPBM)
[2] = molecular target: T1, FLI1 (endogenous, THP-1 nuclear extract) (UniProt Q01543); experiment: as above
T1 sequence: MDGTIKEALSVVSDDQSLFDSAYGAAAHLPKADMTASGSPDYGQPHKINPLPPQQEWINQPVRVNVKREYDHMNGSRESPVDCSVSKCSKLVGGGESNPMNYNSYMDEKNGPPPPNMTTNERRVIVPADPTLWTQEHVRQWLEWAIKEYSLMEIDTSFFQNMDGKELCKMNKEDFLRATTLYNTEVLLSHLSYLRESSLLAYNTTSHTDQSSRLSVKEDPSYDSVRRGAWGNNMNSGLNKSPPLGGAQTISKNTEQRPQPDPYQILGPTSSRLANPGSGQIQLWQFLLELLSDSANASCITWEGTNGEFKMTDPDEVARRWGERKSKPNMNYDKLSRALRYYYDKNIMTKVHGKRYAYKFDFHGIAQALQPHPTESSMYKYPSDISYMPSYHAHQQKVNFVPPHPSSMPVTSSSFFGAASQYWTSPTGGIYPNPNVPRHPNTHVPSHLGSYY

| Sequence | binding signal (PU.1 (IVT)) | binding signal [1] | binding signal [2] |
| --- | --- | --- | --- |
| AAAATGAGGAAGTGAGCTAA | 7.94 z-score | 7.38 z-score | 3.68 z-score |
| AGAGAAGGGAAGTGAGATAC | 3.12 z-score | 2.74 z-score | 1.77 z-score |
| CCTAGGAGGAAGTGGGGAGA | 3.87 z-score | 4.56 z-score | 2.56 z-score |
| CACAAGAGGAAGTGCCTGCG | 5.28 z-score | 5.92 z-score | 2.91 z-score |
| CAAAAGGGGAACTGCTTGGG | 5.91 z-score | 6.32 z-score | 2.18 z-score |
| GATAAGAGTAAGTCCTCTGT | -0.23 z-score | 0.138 z-score | -0.0869 z-score |
| GAAAAGAGGAACCGTATGGT | 5.79 z-score | 6.29 z-score | 1.4 z-score |
| TGCCGGAGGAAGTGGCATGC | 2.27 z-score | 2.63 z-score | 2.03 z-score |
| AATAAGAGGAAGTCAAAATA | 6.65 z-score | 6.54 z-score | 3.33 z-score |
| GAAAACAGGAAGTGATTAGA | 7.95 z-score | 7.19 z-score | 5.42 z-score |
| TGTAAGAGGAAGTTCTGCTT | 6.27 z-score | 6.65 z-score | 3.35 z-score |
| AAATAGAGGAAGTGGTTTAT | 7.55 z-score | 7.1 z-score | 3.85 z-score |
| CAGAAAAGGAAGTGGCCCAG | 3.56 z-score | 3.65 z-score | 2.4 z-score |
| ATTAAACGGAAGTGAAAGGT | 3.92 z-score | 4.05 z-score | 4.54 z-score |
| GCTTTGGGGAAGTGGAAATA | 4.3 z-score | 4.56 z-score | 2.25 z-score |
| TAAAAGAGGAAGTAGCCAAA | 8.23 z-score | 7.19 z-score | 3.69 z-score |
| TGAATCAGGAAGTCTAGGCA | 3.78 z-score | 3.59 z-score | 2.62 z-score |
| GTAGAAAGGAAGTGAAGGAT | 2.31 z-score | 2.05 z-score | 2.64 z-score |
| ATTTTCAGGAAGTGGCAAAA | 5.32 z-score | 5.75 z-score | 3.23 z-score |

| Sequence | binding signal (PU.1 (IVT)) | binding signal [1] | binding signal [2] |
| --- | --- | --- | --- |
| GGAAAGAGGAAGTGGCAGGA | 7.44 z-score | 7.12 z-score | 3.69 z-score |
| ATGTGGAGGAAGTGTTTAGT | 3.13 z-score | 2.68 z-score | 2.09 z-score |
| TTAAACAGGAAGTGTGTAAT | 5.79 z-score | 5.72 z-score | 5.13 z-score |
| ACAACAAGGAACTGTGCCCC | 1.7 z-score | 1.18 z-score | 0.122 z-score |
| CAAGGAGGGAAGTGGGAATG | 2.53 z-score | 2.56 z-score | 1.35 z-score |
| TCAGGAGGGAAGTGAAGAAA | 2.65 z-score | 2.5 z-score | 1.57 z-score |
| CAGAAAAGGAAGTGAGTTTA | 3.96 z-score | 3.73 z-score | 2.81 z-score |
| AAGAAAGGGAAGTGCACTTG | 4.78 z-score | 5.06 z-score | 1.92 z-score |
| CAAATGAAGAACTGATGCGG | 1.21 z-score | 1.08 z-score | -0.147 z-score |
| CAAAAGAGGAACTGGATGGT | 6.98 z-score | 6.8 z-score | 3.1 z-score |
| GAAAAAGGGAACTGGTTGGG | 5.22 z-score | 5.92 z-score | 1.75 z-score |
| GAAAAGAGGAAGTCTAACTA | 8.03 z-score | 7.13 z-score | 4.07 z-score |
| CGAAAGGGGAAGTGATAAAC | 6.93 z-score | 7.09 z-score | 3.38 z-score |
| AGAAGGAGGAAGTGAGTTAG | 5.95 z-score | 6.5 z-score | 3.49 z-score |
| ATTTAAGGGAAGTGGGCGTG | 3.42 z-score | 3.87 z-score | 1.77 z-score |
| AAAAAAAGGAACTGACTAGA | 4.95 z-score | 4.5 z-score | 1.04 z-score |
| AAAAAGAGGAAGTGAGATGG | 8.88 z-score | 7.85 z-score | 4.29 z-score |
| GGAAGGAGGAAGTCAGCTTG | 4.76 z-score | 5.42 z-score | 2.79 z-score |
| GGAATGAGGAAGTGGTCATG | 7.26 z-score | 6.96 z-score | 3.41 z-score |

| Sequence | binding signal (PU.1 (IVT)) | binding signal [1] | binding signal [2] |
| --- | --- | --- | --- |
| AAGCAGAGGAAGTGCAAATA | 3.04 z-score | 2.75 z-score | 2.34 z-score |
| AGGAAGAGGAAGTGACAGAT | 6.27 z-score | 6.54 z-score | 3.78 z-score |
| AAAATGGGGAAGTGACTCTC | 7.73 z-score | 7.21 z-score | 3.05 z-score |
| GGTTTAAGGAAGTGATAGTA | 5.37 z-score | 5.62 z-score | 2.38 z-score |
| CGGAACAGGAAGTGTGGTAC | 4.78 z-score | 5.5 z-score | 5.3 z-score |
| AGAGAGAGGAAGTGCCACAC | 3.91 z-score | 4.65 z-score | 2.35 z-score |
| TGAAAGAGGAAGTGCAAGCA | 7.24 z-score | 7.17 z-score | 3.41 z-score |
| CAGAAGGGGAAGTGATATAG | 5.72 z-score | 6.05 z-score | 3.03 z-score |
| GAAAACAGCAAGTCCCATAG | 0.0577 z-score | -0.0992 z-score | -0.329 z-score |
| AAAAAGGGGAAATGATAGAA | 6.29 z-score | 6.08 z-score | 2.49 z-score |
| ACAAAGGGGAAGTAGCAGGT | 7 z-score | 6.79 z-score | 3.52 z-score |
| AAAGTAAGGAAGTGCTTAAA | 3.42 z-score | 3.1 z-score | 1.8 z-score |
| ATGAAAAGGAAGTGGGAGGT | 2.38 z-score | 2.64 z-score | 2.46 z-score |
| GAAGTGAGGAAGTGTGGCTG | 3.34 z-score | 2.98 z-score | 1.73 z-score |
| AGAAAAAGGAACTGGCTAGA | 3.75 z-score | 3.31 z-score | 1.35 z-score |
| AAAAGGAGGAAGTGATGATG | 6.55 z-score | 6.63 z-score | 3.3 z-score |
| CTGGAGAGGAAATGTTTAAA | 1.49 z-score | 0.685 z-score | 2.45 z-score |
| TCAAACAGGAAGTGTAAATA | 4.93 z-score | 4.97 z-score | 5.16 z-score |
| GAAATGAGGAAGTTGGTGCT | 8.11 z-score | 7.37 z-score | 3.97 z-score |
